Source: PubChem BioAssay (NCI)
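Growth conditions: 96-well plates. Treatment: test compound, 48 hours, 5 concentrations. Analysis: linear interpolation between bracketing concentrations; unreached endpoints set to highest concentration. GI50: concentration for 50% inhibition of growth.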

System: NCI-H322M lung
Test: inhibition of tumour cell growth, NCI panel, 48 h

COc1cc(Cc2nccc3cc(OC)c(OC)cc23)c(C(C)=O)cc1OC
GI50: 38.5 µM
